In all, about 310,000 compounds went through this assay and about 2,200 (0.71%) showed an effect of 50% or more. Effects have a minus sign here. The list shows a part of the results.

human ether-à-go-go-related gene (hERG) potassium channel, sequence (Q12809 whole entry, looked up): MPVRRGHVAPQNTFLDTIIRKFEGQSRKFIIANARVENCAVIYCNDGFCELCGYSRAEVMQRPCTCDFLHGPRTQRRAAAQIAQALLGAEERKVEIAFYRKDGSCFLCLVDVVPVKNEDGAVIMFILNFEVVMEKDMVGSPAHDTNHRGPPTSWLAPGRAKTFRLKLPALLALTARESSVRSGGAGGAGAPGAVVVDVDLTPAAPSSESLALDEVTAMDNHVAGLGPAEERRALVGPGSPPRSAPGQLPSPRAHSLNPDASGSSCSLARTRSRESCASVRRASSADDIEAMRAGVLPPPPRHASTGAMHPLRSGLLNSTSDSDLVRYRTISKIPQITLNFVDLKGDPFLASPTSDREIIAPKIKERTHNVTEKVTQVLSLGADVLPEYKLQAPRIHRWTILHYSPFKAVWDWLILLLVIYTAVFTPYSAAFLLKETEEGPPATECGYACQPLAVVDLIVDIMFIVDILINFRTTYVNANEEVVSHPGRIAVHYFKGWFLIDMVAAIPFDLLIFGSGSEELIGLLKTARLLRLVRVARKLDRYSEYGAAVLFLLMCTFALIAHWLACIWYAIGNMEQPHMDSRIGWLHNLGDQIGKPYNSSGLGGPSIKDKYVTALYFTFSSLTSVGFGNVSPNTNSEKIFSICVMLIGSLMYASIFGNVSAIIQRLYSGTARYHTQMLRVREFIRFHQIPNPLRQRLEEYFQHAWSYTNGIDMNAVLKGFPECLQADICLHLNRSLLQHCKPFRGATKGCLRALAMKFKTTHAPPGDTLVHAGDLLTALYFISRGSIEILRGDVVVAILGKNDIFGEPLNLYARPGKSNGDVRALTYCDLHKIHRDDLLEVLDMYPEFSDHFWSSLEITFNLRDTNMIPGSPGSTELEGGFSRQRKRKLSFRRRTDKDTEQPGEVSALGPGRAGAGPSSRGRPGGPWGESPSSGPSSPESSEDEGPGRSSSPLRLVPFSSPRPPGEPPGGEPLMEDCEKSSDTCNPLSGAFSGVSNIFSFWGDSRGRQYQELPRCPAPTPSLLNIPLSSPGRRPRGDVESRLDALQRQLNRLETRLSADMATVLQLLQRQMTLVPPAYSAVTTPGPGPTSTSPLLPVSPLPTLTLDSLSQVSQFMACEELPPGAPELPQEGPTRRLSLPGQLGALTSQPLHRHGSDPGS

This assay concerns the target human ether-à-go-go-related gene (hERG) potassium channel (human, UniProt Q12809). The experiment in a line: primary screen, population patch clamp on CHO cells stably expressing hERG.
For `CC(C)C(=O)Nc1cccc(S(=O)(=O)c2cccc(NC(=O)C(C)C)c2)c1`, the “hERG current change (%, negative = inhibition) at 1uM” value was 19.5%.

Turning to `O=C(Cn1nnc(-c2ccccc2-n2cnnn2)n1)NCc1ccccc1`, the “hERG current change (%, negative = inhibition) at 1uM” value came to 6.77%.

With `COc1ccccc1C(CCNCc1ccccc1)c1ccc(OC(C)C)cc1` (stereo not drawn), the “hERG current change (%, negative = inhibition) at 1uM” value is 8.66%.

Turning to `CCOc1cc(Cl)c(NC(=O)CC)cc1OCC`, the “hERG current change (%, negative = inhibition) at 1uM” value is given as 14.5%.

Regarding `Cc1cccc(NC(=O)c2ccccc2OCC(=O)N2CCOCC2)c1C`, the “hERG current change (%, negative = inhibition) at 1uM” value is on record as 8.12%.

As to `O=C(NC(=S)Nc1nc2c(s1)CCCC2)c1ccccc1`, the “hERG current change (%, negative = inhibition) at 1uM” value is listed as 16.6%.

In the case of `COC(=O)c1c(NC(=O)C(C)(C)C)csc1C`, the “hERG current change (%, negative = inhibition) at 1uM” value is 12.7%.

On to `CCCCC(CC)CNC(=O)CN1C(=O)NC2(CCc3ccccc32)C1=O` (stereo not drawn), for which the “hERG current change (%, negative = inhibition) at 1uM” value amounted to 11.5%.

With `Cc1cc(C)cc(C(=O)N2CC(C)OC(C)C2)c1` (stereo not drawn), the “hERG current change (%, negative = inhibition) at 1uM” value is given as 6.6%.

With `COC(=O)CCCC(=O)N1CCC(CCC(=O)NC2CC2)CC1`, the “hERG current change (%, negative = inhibition) at 1uM” value amounted to 12.6%.

Consider `CN(C)c1ccc(C2C=C(c3ccc(Cl)cc3OC(F)F)Nc3ncnn32)cc1` (stereo not drawn), for which the “hERG current change (%, negative = inhibition) at 1uM” value is -7.44%.

As to `COc1ccc(-c2nc(CN(Cc3cnn(C)c3)C(C)C)c(C)o2)c(OC)c1`, the “hERG current change (%, negative = inhibition) at 1uM” value is -3.49%.

As to `Cc1cccc(NC(=O)C2CCN(C(=O)c3ccc(Cl)cc3)CC2)n1`, the “hERG current change (%, negative = inhibition) at 1uM” value is -14.1%.

As for `COc1ccccc1N1C(=O)C2C3CC(c4ccccc4)C(C3)C2C1=O` (stereo not drawn), the “hERG current change (%, negative = inhibition) at 1uM” value is on record as 12%.

Take `Cc1oc(-c2cccc(Cl)c2)nc1CN1CCCC(C(=O)NC(C)c2ccc3c(c2)OCCO3)C1` (stereo not drawn): the “hERG current change (%, negative = inhibition) at 1uM” value was -4.26%.

Take `COc1cccc(-n2cc(CNCc3cn(C)nc3-c3ccccc3F)cn2)c1`: the “hERG current change (%, negative = inhibition) at 1uM” value is given as -6.41%.

Take `Cn1c(SCC(=O)N2CCCCCC2)nnc1-c1ccco1`: the “hERG current change (%, negative = inhibition) at 1uM” value is on record as 15.7%.

Regarding `CCN(N=Nc1cccc([N+](=O)[O-])c1)c1cccc([N+](=O)[O-])c1`, the “hERG current change (%, negative = inhibition) at 1uM” value is -0.554%.

Regarding `COc1ccc2sc(-c3ccccc3OC)c(-c3ccc(O)cc3)c2c1`, the “hERG current change (%, negative = inhibition) at 1uM” value turned out to be 12.8%.

Consider `CCOCCn1c(=NC(=O)CSCC(=O)Nc2cc(C)on2)sc2cc(OC)ccc21`, for which the “hERG current change (%, negative = inhibition) at 1uM” value is recorded as 3.46%.

For the molecule `CC(C)(C)C(=O)Nc1ccc(Cc2ccncc2)cc1`, the “hERG current change (%, negative = inhibition) at 1uM” value was 12.9%.

For `CCOc1ccc(Nc2nc3c(C)cccc3cc2C#N)cc1`, the “hERG current change (%, negative = inhibition) at 1uM” value is given as 8.21%.

As for `CC(C)C(NC(=O)c1ccco1)C(=O)OCc1cc([N+](=O)[O-])cc2c1OCOC2` (stereo not drawn), the “hERG current change (%, negative = inhibition) at 1uM” value is 5.55%.

Regarding `O=C(CCN1CCN(CCO)CC1)Nc1cccc(Br)c1`, the “hERG current change (%, negative = inhibition) at 1uM” value is recorded as 0.678%.

Turning to `Cc1ccc(OCCN(C)C(=O)C2CCC(=O)N(Cc3ccccc3F)C2)cc1` (stereo not drawn), the “hERG current change (%, negative = inhibition) at 1uM” value was 0.888%.

On to `Cc1ccc(C)c(/C(O)=C2\C(=O)C(=O)N(Cc3cccnc3)C2c2cccnc2)c1` (stereo not drawn), for which the “hERG current change (%, negative = inhibition) at 1uM” value is given as -9.76%.

In the case of `CS(=O)(=O)N1CCC(C(=O)Nc2c(F)cccc2F)CC1`, the “hERG current change (%, negative = inhibition) at 1uM” value was determined as 2.59%.

Turning to `Cc1cccc(NC(=O)Cn2nnc(-c3ccc(CN4CCCC4)cc3)n2)c1C`, the “hERG current change (%, negative = inhibition) at 1uM” value is recorded as -5.42%.

As for `COc1ccc(N2C(=O)CC(C3CCCO3)C2=O)cc1` (stereo not drawn), the “hERG current change (%, negative = inhibition) at 1uM” value is listed as 19.4%.

For the molecule `COC(=O)CCc1sc(Nc2ccc(Br)cc2)nc1-c1ccc(OC)cc1`, the “hERG current change (%, negative = inhibition) at 1uM” value is on record as -0.416%.

For `Cc1c(C(=O)NCCN2CCOCC2)oc2ccc(Br)cc12`, the “hERG current change (%, negative = inhibition) at 1uM” value is given as 6.82%.

As to `Cc1cccc(C(=O)NCC(=O)Nc2ccc(S(=O)(=O)Nc3nc(C)cc(C)n3)cc2)c1`, the “hERG current change (%, negative = inhibition) at 1uM” value is 12%.

Regarding `CC(NC(=O)C1CCC(=O)N1Cc1ccccc1Cl)c1ccccc1` (stereo not drawn), the “hERG current change (%, negative = inhibition) at 1uM” value came to 12.1%.

For the molecule `O=C(Nc1ccn(Cc2ccccc2)n1)c1cccc(Cn2cc([N+](=O)[O-])cn2)c1`, the “hERG current change (%, negative = inhibition) at 1uM” value worked out at 12%.

In the case of `CC(C)(C)C(=O)Nc1ccc(N=Nc2ccccc2)cc1`, the “hERG current change (%, negative = inhibition) at 1uM” value came to 8.4%.

As for `CN(C)c1ccc(N2CC(C)(C)C2=O)cc1`, the “hERG current change (%, negative = inhibition) at 1uM” value is listed as 10.4%.

Regarding `OCCNc1c2ccccc2nc2c(F)c(F)c(F)c(F)c12`, the “hERG current change (%, negative = inhibition) at 1uM” value turned out to be 14.2%.

For the molecule `C=CCNC(=O)/C(C#N)=C/c1c(C)nn(-c2ccccc2)c1Cl`, the “hERG current change (%, negative = inhibition) at 1uM” value was -1.68%.

Take `O=C(O)/C=C\C(=O)Nc1ccccc1N1CCN(c2ccccc2)CC1`: the “hERG current change (%, negative = inhibition) at 1uM” value was 12.7%.

In the case of `CCC1SC(=Nc2cccc(C)c2)NC1=O` (stereo not drawn), the “hERG current change (%, negative = inhibition) at 1uM” value was determined as 12%.

With `C=C1C(=O)O[C@H]2[C@H]1[C@@H](O)CC(=C)[C@@H]1CC(=O)[C@@H](C)[C@H]21`, the “hERG current change (%, negative = inhibition) at 1uM” value is reported as 14%.

Regarding `CCc1ccc(S(=O)(=O)Nc2ccc(Cl)cn2)cc1`, the “hERG current change (%, negative = inhibition) at 1uM” value was 15%.

On to `CN(Cc1ccccc1)CC(O)COc1ccc(CNCc2cc3ccccc3s2)cc1` (stereo not drawn), for which the “hERG current change (%, negative = inhibition) at 1uM” value is on record as -4.6%.

With `COc1cc2cc(C(C)(C)O)oc(=O)c2cc1OC`, the “hERG current change (%, negative = inhibition) at 1uM” value was found to be 12.9%.

`Cc1cc(C)n2nc(C(=O)N3CCCC(Nc4ccc(F)c(F)c4)C3)cc2n1` (stereo not drawn): the “hERG current change (%, negative = inhibition) at 1uM” value is listed as 4.71%.

The values above are taken from PMC4336329 (PLoS ONE, 2015).
